Test results reported in publication PMC6451091.
The list shows a part of the results. For part of these data: At the low end of the ranking the order means little. For part of these data: Measured with an extract: partners may take part in the binding.

Key:
Conditions in all cases: 20 mM HEPES pH 7.9, 100 mM NaCl, 1 mM DTT, 0.2 mg/mL BSA, 0.02% Triton X-100, 2% milk, 0.4 mg/mL salmon testes DNA; 1 h; temperature not stated; high values mean tight binding; double strand, one strand shown; sequences stand for … in GCCTAGCAC…GTGCTAGGTCTTGATTCGCTTGACGCTGCTG
PU.1 (IVT) = PU.1 (IVT) (UniProt P17947); assay: protein-binding microarray (PBM)
[1] = target: PU.1 (endogenous, THP-1 nuclear extract) (UniProt P17947); assay: nuclear extract protein-binding microarray (nextPBM)
[2] = target: T1, FLI1 (endogenous, THP-1 nuclear extract) (UniProt Q01543); assay: as above
T1 sequence: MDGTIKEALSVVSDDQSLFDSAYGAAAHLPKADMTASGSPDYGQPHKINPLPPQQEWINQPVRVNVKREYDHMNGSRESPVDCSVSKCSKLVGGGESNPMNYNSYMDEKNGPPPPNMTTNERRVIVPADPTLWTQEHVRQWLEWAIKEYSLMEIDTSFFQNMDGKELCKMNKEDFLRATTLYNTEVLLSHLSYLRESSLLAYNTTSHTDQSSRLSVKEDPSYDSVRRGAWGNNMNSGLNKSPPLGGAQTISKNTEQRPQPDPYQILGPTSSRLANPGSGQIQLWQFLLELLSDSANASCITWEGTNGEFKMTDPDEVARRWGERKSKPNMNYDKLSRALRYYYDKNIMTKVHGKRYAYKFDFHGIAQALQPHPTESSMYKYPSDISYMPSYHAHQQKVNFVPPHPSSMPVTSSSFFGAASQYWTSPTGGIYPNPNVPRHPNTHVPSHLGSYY

Sequence	binding signal (PU.1 (IVT)) [z-score]	binding signal [1] [z-score]	binding signal [2] [z-score]
CCAATGAGGAACTGATGCGG	4.47	4.55	1.35
AGGGTGGGGAAGTGGCAGCT	2.62	2.84	1.32
AAGATGAGGAAGTGAGTGTA	6.13	6.4	2.74
CAAAAAAGGAAGTGGCTGTG	5.51	6.1	3
CGAAAGGGGAAGTGCTAACC	7.25	7.11	2.8
CGAAATGGGAAGTGCTAAAC	4.8	4.65	1.84
ACAAAAAGGAATTGTGCCCC	0.17	0.104	0.368
GCGAAGAGGAAGTTGCGCAG	6.26	6.64	3.25
GGAATGGGGAAGTGCTGGAC	6.65	6.53	3.07
AAAATGAGGAAGTGTCAGGG	7.99	7.36	3.12
ACAGAGAGGAAGTAGATAAA	4.75	5.07	2.85
AAAATAAGGAACTGGCTAGA	4.36	4.59	1.35
GAGAAGAGGAAGTTCCTCCG	6.82	6.73	3.61
GAGAAGGGGAAGTGAGACAG	5	5.77	2.51
CAAATGAGGAACTGATGTGG	5.64	6.22	1.82
CAAATGAGGAAGTAGAGAAA	7.99	7.3	3.77
GACAGGAGGAAGTGTGAACC	3.49	3.24	2.31
AGGAAGAGGAAGAGGAAGAA	4.95	5.31	3.01
AGAAAGAGGAAGTAGATATT	8.76	7.51	4.9
AGAATGGGGAAGTGCGACAA	6.54	6.51	2.34

Sequence	binding signal (PU.1 (IVT)) [z-score]	binding signal [1] [z-score]	binding signal [2] [z-score]
TGAAAGGGGAAGTGGGCTCA	6.18	6.88	3.28
TAAAAAGGGAAGTGGATGCT	6.6	6.85	3.35
AATAAAAGGAACTGCAGGCA	1.79	2.19	0.745
AATAAGAGGAAGTGGCAAGA	6.57	6.82	3.51
TCCTTGAGGAAGTGACTCTT	4.07	4.46	2.24
TTCAGGGGGAAGTACTGTGT	3.94	3.75	1.79
AGGGAAGGGAAGTGGAAGAG	2.68	2.63	2.07
ATGATGAGGAAGTAGAATCA	5.49	5.91	2.39
GGGATGAGGAAGTCTGAAAT	4.7	4.92	2.38
CGAAAGGGGAAGTGCTCAAC	7	7.05	3.44
TAGAAGAGGAAGTGGATGAT	5.98	6.4	3.3
TCAAAAAGGAACTGTGCCCC	1.77	1.35	0.413
AAAAAGAGGAAGAGACACCA	5.39	6.43	2.68
CAAATGAGGAACTGACGCGG	5.71	6.05	2.56
CAAATGAGGATCTGATGCGG	0.781	0.889	-0.432
AGAAGGAGGAAGTGACCTGC	5.9	6.45	2.93
AGAAAAAGGAACTGAGGGAG	3.23	3.2	0.768
TAAAGAGGGAAGTGAGGACA	3.98	4.53	1.5
AAAAAGAGGAAGTGATGAGT	8.92	7.55	5.07
CCGAGGAGGAAGTGGCTTAG	4.39	4.84	2.92

Sequence	binding signal (PU.1 (IVT)) [z-score]	binding signal [1] [z-score]	binding signal [2] [z-score]
CAGATGAGGAAATGGAGTTT	2.93	2.85	2.19
GAGGAGAGGAAGTAAGATTT	4.49	4.61	2.81
GGAGAGAGGAAGTCAACTGA	3.75	3.79	2.36
GTGGTGAGGAACTGAGAGTG	1.18	1.48	0.538
TTAAAGGGGAAGTGGACAAA	5.86	6.23	2.47
CAAAAAGGGAAGTGGATGCG	6.83	6.71	2.72
CAAAAAGGGAAGTGGAAGCT	6.2	6.58	3.11
TGAAAGAGGAAGTGCCACCA	7.48	7.08	4
AGAATGAGGAACTGTGTCCC	5.43	6.2	1.54
AGAAAGGGGAACAGAGAGAG	3.3	3.53	0.661
GATAAGAGGCAGTCCTCTGT	-0.225	-0.14	-0.241
AAAAAAAGCAACTGGCTAGA	-0.443	-0.0508	-0.634
AGAAAGAGGAACTGAAAAGT	6.62	6.88	2.62
CAAAGGGGGAAGTGACTGGC	5.1	5.68	2.42
GATAAGAGGAACTACTGTGT	5.02	5.37	1.42
AAGAAGAGGAACTCTTAGAG	3.83	3.99	1.53
AGAAAGAGGAAGTGGGTGTT	8	7.31	4.31
GAAAAGAGGAAGTCCAGCAA	8.19	7.3	3.33
AAAAAAAGGAAGTGAAAAAT	7.11	6.46	3.13
TGAAAGGGGAAGTCAGATAG	6.45	6.64	2.68
